The structures appear in SMILES notation. In all, about 340,000 compounds went through this assay and about 6,900 (2%) were called active. No stated cut-off is given here; in the data, active means inhibition above about 30%; inactive means below that, where a call was filed. This is a selection; strong and weak results do not stand in their true shares. Where no call is shown, the source filed none. Where a structure was tested more than once in an assay, its records may differ in their call.

The assay has as its target D(2) dopamine receptor (Homo sapiens) (UniProt P14416). Briefly: HTS Assay for Allosteric Antagonists of the Human D2 Dopamine Receptor: Primary Screen for Antagonists. Further: 0% is about no effect. The note with it: HEK293 TREx D2 cells, calcium flux, dopamine EC80; at 10 µM; stronger effect = higher value. In a few lines: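 Compounds are added to dye-loaded, induced HEK293 T-REx cells coupled to calcium release via D2; after a 3 min kinetic read an EC80 dopamine stimulus is given and fluorescence is recorded for 3 more min.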
Sequence of UniProt P14416 (P14416 whole entry, looked up): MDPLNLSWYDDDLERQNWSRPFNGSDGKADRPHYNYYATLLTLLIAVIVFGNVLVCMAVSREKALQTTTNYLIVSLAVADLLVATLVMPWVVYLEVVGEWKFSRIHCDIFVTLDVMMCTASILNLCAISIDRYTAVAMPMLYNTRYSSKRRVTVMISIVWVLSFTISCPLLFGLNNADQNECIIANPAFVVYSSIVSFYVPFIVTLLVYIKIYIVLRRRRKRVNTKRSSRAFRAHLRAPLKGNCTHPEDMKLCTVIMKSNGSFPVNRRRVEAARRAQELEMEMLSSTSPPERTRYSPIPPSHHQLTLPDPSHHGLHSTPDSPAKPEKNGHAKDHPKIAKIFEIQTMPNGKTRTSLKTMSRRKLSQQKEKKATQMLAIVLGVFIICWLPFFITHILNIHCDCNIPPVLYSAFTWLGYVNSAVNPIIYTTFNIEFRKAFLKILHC
What is called inhibition is the drop in the measured response relative to a control, in per cent. Regarding `CC(C)(C)CC(C)(C)NC(=S)NC1CCN(Cc2ccccc2)CC1`, the inhibition is active: 66.1%.
On to `Cc1c(-c2ccc(Cl)cc2)c(=O)oc2c(CN3CCN(C)CC3)c(O)ccc12`, for which the inhibition was found to be 4.21%.
For the compound `O=C(CNC(=O)c1ccccc1Cl)OCc1cc(=O)n2nc(C3CC3)sc2n1`, the inhibition came out at 12%.
On to `CC1=CC(C)(C)N(C(=O)CN2C(=O)CCC2=O)c2ccc(C)cc21`, for which the inhibition is active: 30.3%.
The same measure for `CCOC(=O)c1ccc(NC(=O)CSc2cc(-c3ccccc3)nc(C)n2)cc1`: 1.07%.
The same measure for `CN(CCNC(=O)c1ccc(/C=N/O)nc1)Cc1ccccc1`: active: 60.8%; for `O=C1CC(c2ccccc2)Cc2[nH]c(=O)c(C(=O)Nc3ccc(F)cc3)cc21` (stereo not drawn): -14.8%; for `CN(C)c1ccc(C(=O)N/N=C/c2cc(Br)cc(Br)c2O)cc1`: active: 32.1%.
In the case of `Cc1c(C(=O)N2CCCCCC2)c(S(=O)(=O)Nc2ccc(OC(F)(F)F)cc2)c(C)n1C`, the inhibition is 0.0604%.
The same measure for `COc1cc(/C=C2\SC(=O)N(Cc3ccc(F)cc3)C2=O)cc([N+](=O)[O-])c1O`: active: 31.5%; for `CCOc1ccc2c(c1)c(=O)c(S(=O)(=O)c1ccc(CC)cc1)cn2CC`: 2.87%.
The same measure for `CCc1ccc(OCC(=O)Nc2cc3oc4ccccc4c3cc2OC)c(Br)c1`: 19.9%; for `CCOc1ccccc1-c1noc(CSc2nnc(-c3ccncc3)n2-c2ccc(F)cc2)n1`: 5.78%.
Regarding `COc1cc(OC)cc(C(=O)N2CCC(N3CCN(c4ccccc4)CC3)CC2)c1`, the inhibition was active: 37.1%.
The same measure for `COc1ccc(-c2nnc(SCC(=O)N3CCCCC3)o2)cc1`: -1.14%.
The same measure for `COc1ccc(CN2C3CCC2CC(NC(=O)c2cccc(F)c2)C3)cc1` (stereo not drawn): active: 81.3%; for `O=C(COc1ccccc1)Nc1c(C(=O)N2CCN(c3ccc(F)cc3)CC2)oc2ccccc12`: -2.48%.
The same measure for `CC1CCN(C(=O)CN2c3ccc(Br)cc3-c3ccccc3S2(=O)=O)CC1`: 18.4%; for `Cc1cccc(NC(=O)CSc2ncc3c(n2)-c2cc(Cl)ccc2N(C)S3(=O)=O)c1C`: 3.08%; for `CC(C)c1ccc(Nc2cc(C(=O)NCCCN(C)Cc3ccccc3)c3ccccc3n2)cc1`: 23.6%.
`CC(=O)N1CCN(C(=O)C(=O)Nc2c3c(nn2-c2ccc(Cl)cc2)CSC3)CC1`: the inhibition is -11.7%.
The same measure for `Cc1oc(-c2ccc(C(=O)NCCCOC(C)C)cc2)nc1CS(=O)(=O)c1ccccc1`: 4.06%; for `COc1ccc(C(=O)NCc2ccc3c(c2)CCN3C(C)=O)cc1OC`: -16.2%.
`CCn1ccc2cc(S(=O)(=O)N3CCCN(C(=O)Nc4ccc(C)cc4Cl)CC3)ccc21`: the inhibition is -26.6%.
The same measure for `COc1cc2c(cc1OC)n(CC(=O)Nc1ccc(C)cc1C)c(=O)n1nc(-c3ccccc3)nc21`: 4.23%.
`Cn1c(=O)n(Cc2ccccc2Cl)c(=O)c2c1nc1n2CCN1c1ccccc1`: the inhibition was found to be 18.1%.
The same measure for `Cc1ccc(C(=O)COC(=O)CCCC(=O)Nc2cc(C(F)(F)F)ccc2Cl)cc1C`: -7.85%.
The same measure for `Cc1c(Cl)cccc1NC(=O)CSc1nc(=O)n(Cc2ccncc2)c2c1CCC2`: -26.3%; for `CCc1nn(CCCN2CCN(c3cccc(Cl)c3)CC2)c(=O)n1CCOc1ccccc1`: active: 47%.
In the case of `CC(C)Cc1nn2c(=O)cc(COC(=O)c3cccc(NC(=O)c4cccs4)c3)nc2s1`, the inhibition came out at 5.16%.
Consider `COc1ccc(-c2nsc(NC(=O)COc3ccccc3OC)n2)cc1`, for which the inhibition is -6.96%.
The same measure for `O=C(c1ccc(=O)[nH]c1)N(Cc1ccco1)C1(C(=O)NC2CCCCC2)CCCCC1`: active: 37.6%; for `CCC1=C(OC(=O)N(CC)CC)N2C(=O)OC(=NCC(=O)OC)[C@]2(Cc2ccccc2)[C@H]2C1=CC[C@H]1C(=O)NC(=O)[C@H]12`: active: 53.2%.
The same measure for `COc1ccccc1CNC(=O)CCCn1c(=O)c2ccccc2n(CC(=O)Nc2ccc(C)cc2Cl)c1=O`: 5.38%; for `COc1ccc(NC(=O)Cn2c(=O)n(Cc3nc(C)no3)c(=O)c3cc4c(cc32)OCO4)cc1`: -4.68%.
The same measure for `COc1ccc(NC(=O)c2cc3c(=O)n(Cc4cccs4)ccc3nc2C)c(OC)c1`: 11.5%; for `Cc1cc(C)cc(NS(=O)(=O)c2ccc(-c3cc(C)no3)s2)c1`: 6.54%.
Take `Cc1cc(C)c(NC(=O)C2CCN(C(=O)N3CC(C)Oc4ccc(Cl)cc43)CC2)c(C)c1` (stereo not drawn): the inhibition was -22.2%.
The same measure for `Cc1ccc(-c2nc3cc(Cl)ccc3o2)cc1NC(=O)c1cc2ccccc2o1`: -6.22%; for `Cc1c(C(=O)N(C)C)sc2c1c(=O)n(-c1ccccc1C(F)(F)F)c(=O)n2Cc1ccccc1C#N`: 6.85%.
`CCOC(=O)c1ccc(NC(=O)C2=C(C)C(=O)OC23CCCCCC3)cc1`: the inhibition was -26.1%.
The same measure for `Cc1cc(-c2ccc(S(=O)(=O)Nc3cccc(C(F)(F)F)c3)s2)on1`: -4.77%; for `CC(C)Sc1ncc(Cl)c(C(=O)Nc2nc3ccc(S(C)(=O)=O)cc3s2)n1`: -26.9%; for `O=C(c1ccccc1Cl)N1CCCC(c2nc3c(nnn3Cc3ccc(F)cc3F)c(=O)[nH]2)C1` (stereo not drawn): 17.6%.
In the case of `CN(C(=O)CSc1nc2ccc(NC(=O)COc3ccc(F)cc3)cc2s1)c1ccccc1`, the inhibition is -7.08%.
The same measure for `CCOC(=O)c1c(C)[nH]c(C)c1S(=O)(=O)N(C)CC(=O)Nc1cccc(Cl)c1C`: 6.47%.
`Cc1c(Cl)cccc1NC(=O)c1cc(-c2cccs2)on1`: the inhibition amounted to 6.16%.
As to `Cc1c(C(=O)N2CCC(C)CC2)c(S(=O)(=O)Nc2cccc(C#N)c2)c(C)n1C`, the inhibition is -8.81%.
For the compound `Cc1ccc(NCc2cccn2-c2nnc(N3CCC(C(=O)NCc4ccccc4C)CC3)s2)cc1`, the inhibition came out at 9.73%.
As to `COc1ccc(CN2CCCN(CC(=O)Nc3ccc(Br)cc3F)S2(=O)=O)cc1`, the inhibition is 7%.
With `Cc1ccc(-n2ncc(C(=O)NCc3ccc4c(c3)OCO4)c2C2CCN(C(=O)OC(C)(C)C)CC2)cc1C`, the inhibition came out at 1.12%.
The same measure for `COc1ccc(C(=O)N2CCCCC2CCN2CCOCC2)cc1` (stereo not drawn): 2.5%.
With `CC1=C(c2ccc(C)c(C)c2)S(=O)(=O)N=C1N1CCN(c2cccc(C)c2)C(C)C1` (stereo not drawn), the inhibition is 14%.
Consider `CCN(CCCNC(=O)CSc1cc(=O)n(C)c2cc(Cl)ccc12)c1ccccc1`, for which the inhibition was -19.2%.
For `CN1CCN(CCNC(=O)c2cnn(-c3cccc(Cl)c3)c2C2CCN(C(=O)OC(C)(C)C)CC2)CC1`, the inhibition was -7.05%.
The same measure for `Cc1cc(=O)n2nc(N3CCC(C(=O)NCc4ccccc4F)CC3)sc2n1`: 14.7%; for `COc1ccc(CN(C)c2ccc(-c3nc(C)no3)cc2[N+](=O)[O-])cc1`: -8.54%.
`Cc1ccc(NC(=O)CSc2ncc3c(n2)-c2ccccc2N(C)S3(=O)=O)c(Cl)c1`: the inhibition was 4.41%.

(Values after PubChem BioAssay AID485344 (National Center for Advancing Translational Sciences (NCATS), 2010).)
